The supplement of paper PMC8728848
This is one part of the list.

Assays:
Assay in all cases: glycan array binding signal (z-score within array); higher = stronger binding
Details in all cases: glycan notation: IUPAC condensed, linker removed
Gal(b1-3)GlcNAc6S = target: Gal(b1-3)GlcNAc6S
How it was run: (§1)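 Columns mapping to the same glycan were averaged after glycan names were converted to IUPAC-condensed notation. The data come from 3228 arrays in the Consortium for Functional Glycomics database, limited to those with an available protein sequence. Binding is reported as a within-array Z-score averaged across arrays of one protein sequence and across linkers.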

[1] = target: Gal(b1-3)[Fuc(a1-4)]GlcNAc
How it was run: as §1

[2] = target: Gal(b1-3)[Fuc(a1-4)]GlcNAc(b1-2)Man(a1-3)[Gal(b1-3)[Fuc(a1-4)]GlcNAc(b1-2)Man(a1-6)]Man(b1-4)GlcNAc(b1-4)[Fuc(a1-6)]GlcNAc
How it was run: as §1

[3] = target: Gal(b1-3)[Fuc(a1-4)]GlcNAc(b1-3)Gal(b1-3)[Fuc(a1-4)]GlcNAc
How it was run: as §1

[4] = target: Gal(b1-3)[Fuc(a1-4)]GlcNAc(b1-3)Gal(b1-4)GlcNAc
How it was run: as §1

[5] = target: Gal(b1-3)[Fuc(a1-4)]GlcNAc(b1-3)Gal(b1-4)[Fuc(a1-3)]GlcNAc
How it was run: as §1

[6] = target: Gal(b1-3)[Fuc(a1-4)]GlcNAc(b1-6)GalNAc
How it was run: as §1

[7] = target: Gal(b1-3)[GlcNAc(b1-6)]GalNAc
How it was run: as §1

[8] = target: Gal(b1-3)[Neu5Ac(a2-6)]GalNAc
How it was run: as §1

[9] = target: Gal(b1-3)[Neu5Ac(a2-6)]GlcNAc(b1-6)Gal(b1-4)Glc
How it was run: as §1

[10] = target: Gal(b1-3)[Neu5Ac(b2-6)]GalNAc
How it was run: as §1

Gal(b1-4)Gal = target: Gal(b1-4)Gal
How it was run: as §1

[11] = target: Gal(b1-4)GalNAc(a1-3)[Fuc(a1-2)]Gal(b1-4)GlcNAc
How it was run: as §1

[12] = target: Gal(b1-4)GalNAc(b1-3)[Fuc(a1-2)]Gal(b1-4)GlcNAc
How it was run: as §1

Gal(b1-4)Glc = target: Gal(b1-4)Glc
How it was run: as §1

Gal(b1-4)Glc6S = target: Gal(b1-4)Glc6S
How it was run: as §1

Gal(b1-4)GlcNAc = target: Gal(b1-4)GlcNAc
How it was run: as §1

[13] = target: Gal(b1-4)GlcNAc(a1-6)Gal(b1-4)GlcNAc
How it was run: as §1

Gal(b1-4)GlcNAc(b1-2)Man = target: Gal(b1-4)GlcNAc(b1-2)Man
How it was run: as §1

[14] = target: Gal(b1-4)GlcNAc(b1-2)Man(a1-3)Man(b1-4)GlcNAc(b1-4)GlcNAc
How it was run: as §1

[15] = target: Gal(b1-4)GlcNAc(b1-2)Man(a1-3)[Gal(b1-4)GlcNAc(b1-2)Man(a1-6)]Man(b1-4)GlcNAc(b1-4)GlcNAc
How it was run: as §1

[16] = target: Gal(b1-4)GlcNAc(b1-2)Man(a1-3)[Gal(b1-4)GlcNAc(b1-2)Man(a1-6)]Man(b1-4)GlcNAc(b1-4)[Fuc(a1-6)]GlcNAc
How it was run: as §1

[17] = target: Gal(b1-4)GlcNAc(b1-2)Man(a1-3)[Gal(b1-4)GlcNAc(b1-2)][GlcNAc(b1-4)]Man(b1-4)GlcNAc(b1-4)GlcNAc
How it was run: as §1

[18] = target: Gal(b1-4)GlcNAc(b1-2)Man(a1-3)[GlcNAc(b1-2)Man(a1-6)]Man(b1-4)GlcNAc(b1-4)GlcNAc
How it was run: as §1

[19] = target: Gal(b1-4)GlcNAc(b1-2)Man(a1-3)[Man(a1-6)]Man(b1-4)GlcNAc(b1-4)GlcNAc
How it was run: as §1

[20] = target: Gal(b1-4)GlcNAc(b1-2)Man(a1-6)Man(b1-4)GlcNAc(b1-4)GlcNAc
How it was run: as §1

[21] = target: Gal(b1-4)GlcNAc(b1-2)Man(a1-6)[GlcNAc(b1-2)Man(a1-3)]Man(b1-4)GlcNAc(b1-4)GlcNAc
How it was run: as §1

[22] = target: Gal(b1-4)GlcNAc(b1-2)Man(a1-6)[Man(a1-3)]Man(b1-4)GlcNAc(b1-4)GlcNAc
How it was run: as §1

[23] = target: Gal(b1-4)GlcNAc(b1-2)[Gal(b1-4)GlcNAc(b1-4)]Man(a1-3)[Gal(b1-4)GlcNAc(b1-2)Man(a1-6)]Man(b1-4)GlcNAc(b1-4)GlcNAc
How it was run: as §1

[24] = target: Gal(b1-4)GlcNAc(b1-2)[Gal(b1-4)GlcNAc(b1-4)]Man(a1-3)[Gal(b1-4)GlcNAc(b1-2)[Gal(b1-4)GlcNAc(b1-6)]Man(a1-6)]Man(b1-4)GlcNAc(b1-4)GlcNAc
How it was run: as §1

B1: CvGal1 (Crassostrea virginica), A7Y0I5 (protein)
chain: MTYQISKISQPFTSYIPNGLHIGKHLLLRGRVSYGTEAFAINLQQNPEPCNGEVAFHFNPRPGEQQCVRNSFDGGSWMDEERDQPHFPFDEGRSFTLRIEVAEEGFRTYVNGKPYVNFSHRLDLGNVHYLYLTEGAEFYDISYQDRYTLPYKSEIPQQMNVGKAVRIRGASQDNDGFSVNFACDPDNENCAFHFNPRPNEGVVVRNANLGGWGDEERDYEAEFPFHPYNYFDAMFICTDDKYLVHVNDKYFTEFNHRGGVDASSFFNIVGNLDIQDVEYFEPLEDDFVKTIPSGLVKGDVLIFRGFMKPGGDTFSINFMNGYSVEDDIAFHLNPRVGEGQVVMNCCMGGAWGDEEREDIPSPLADREPFEVKVVVKKNKFKVYVNGKKCMKFAARGNLEDIKGVNIKGEAYVYEVKLERKLEDSWEYLPGGFRVGGWVVVQAIPKKGSEGFAINFRTGSDEDSDIAFHFNPRLQENCTIRNSCAGGAWGGEERDQPDFPFEKKDTCEIAIQAQPDRFVTYVNGKRYIEFNHRLPLESITCVELTGRADFFEPKFF
glycan array binding signal (z-score) (Gal(b1-3)GlcNAc6S): -0.281 | glycan array binding signal (z-score) [1]: -0.234 | glycan array binding signal (z-score) [2]: -0.231 | glycan array binding signal (z-score) [3]: -0.24 | glycan array binding signal (z-score) [4]: -0.099 | glycan array binding signal (z-score) [5]: -0.224 | glycan array binding signal (z-score) [6]: -0.24 | glycan array binding signal (z-score) [7]: -0.254 | glycan array binding signal (z-score) [8]: -0.254 | glycan array binding signal (z-score) [9]: -0.228 | glycan array binding signal (z-score) [10]: -0.29 | glycan array binding signal (z-score) (Gal(b1-4)Gal): -0.266 | glycan array binding signal (z-score) [11]: 4.11 | glycan array binding signal (z-score) [12]: 0.428 | glycan array binding signal (z-score) (Gal(b1-4)Glc): -0.253 | glycan array binding signal (z-score) (Gal(b1-4)Glc6S): -0.264 | glycan array binding signal (z-score) (Gal(b1-4)GlcNAc): -0.263 | glycan array binding signal (z-score) [13]: -0.289 | glycan array binding signal (z-score) (Gal(b1-4)GlcNAc(b1-2)Man): -0.265 | glycan array binding signal (z-score) [14]: -0.222 | glycan array binding signal (z-score) [15]: -0.155 | glycan array binding signal (z-score) [16]: -0.268 | glycan array binding signal (z-score) [17]: -0.195 | glycan array binding signal (z-score) [18]: -0.298 | glycan array binding signal (z-score) [19]: -0.239 | glycan array binding signal (z-score) [20]: -0.233 | glycan array binding signal (z-score) [21]: -0.207 | glycan array binding signal (z-score) [22]: -0.266 | glycan array binding signal (z-score) [23]: 0.455 | glycan array binding signal (z-score) [24]: -0.065
